Laboratory results from US20230338565A1, “ANTIBODY DRUG CONJUGATE, PREPARATION METHOD THEREFOR AND USE THEREOF” (SICHUAN KELUN-BIOTECH BIOPHARMACEUTICAL CO., LTD., priority 2020, published 2023).

Assays:
human Claudin 18.2 [1] = target: T1, human Claudin 18.2 (Homo sapiens, UniProt P56856); assay: Specificity by FACS, HEK293T-human Claudin18.2 cells; assay type: binding; conditions: antibody 1000 nM
T1 construct: expressed in transfected cells; cells formaldehyde-fixed for the cell ELISA

[2] = target: T2, human Claudin 18.2 on cell membrane (Homo sapiens, UniProt P56856); assay: Affinity to HEK293T-Claudin 18.2 by flow cytometry; conditions: binding to HEK293T-Claudin 18.2 cells
T2 construct: expressed in transfected cells
Experimental: The affinity of 2C6.9-hz21 to human Claudin 18.2 on cell membrane was detected using HEK293T-Claudin 18.2 cells. The specific procedures were as follows: HEK293T-Claudin 18.2 cells were detached and centrifuged, followed by being washed twice with PBS. And then the cells were resuspended in PBS containing 1% BSA and were plated into a 96-well tip bottom plate at 300000 cells per well in a volume of 50 μl for 20 wells in total. […] of 2C6.9-hz21 and IMAB362 antibody were separately then added with 11 concentrations starting from 1000 nM with three-fold dilution to each well. Human IgG was served as negative control. The reactions were mixed well and incubated for 1 h at 4° C. in the dark, followed by three times of washing with PBS, the FITC-labelled anti-human Fc secondary antibody (Biolegend, 409322) was added and incubated for 0.5 h at 4° C. in the dark. Detection was performed by flow cytometry (Beckman, Cytoflex) after being washed for three times with PBS.

[3] = test system: HEK293T-Claudin 18.2 cells; assay: ADCC, NK cell mediated killing assay; assay type: cell-based, human; conditions: NK92MI-CD16a effector cells, LDH detection
Experimental: 2C6.9 belongs to IgG1 subtype and has relative strong antibody-dependent cell-mediated cytotoxicity (ADCC). NK cell mediated killing assay was used to determine the ADCC activity of 2C6.9. The specific procedures were as follows: HEK293T-Claudin 18.2 cells were harvested and centrifuged, followed by adjustment of cell density. 1×10^4/well of cells were plated on a plate and incubated overnight. The medium was removed on the next day. NK92MI-CD16a cells (Huabo Biopharm) were centrifuged, resuspended in MEMA medium and adjusted to 1×10^6/mL, then 50 μL/well cells were added to the corresponding wells. 2C6.9-hz21 and IMAB362 antibodies were diluted with MEMA medium. For HEK293T-Claudin18.2 cells, 10 antibody concentrations were tested, starting from 40 μg/mL with 5-fold dilution. For NUGC-4 cells, 11 antibody concentrations were tested, starting from 2 mg/mL with 5-fold dilution. 50 μL/well of the diluted antibodies were added to the corresponding wells and the reactions were left to stand in incubator at 37° C., 5% CO2 and incubated for 5.5 h. Lysis buffer was then added to the positive control well and incubated for another 0.5 h. 50 μL/well of Lactate Dehydrogenase (LDH) detection agent (DOJINDO LABORATORISE, CK12) were added to the wells and the absorbance at 490 nm were taken every 10 min on a microplate reader (MD, SpectraMax M2). […]

human Claudin 18.2 [4] = target: T1, human Claudin 18.2; assay: Cell ELISA on L929-Claudin 18.2 cells; assay type: binding; conditions: binding to L929-Claudin 18.2 cells, Cellular ELISA
Experimental: Human Claudin18.2 belongs to the tetraspanin family and has a complex structure. Cell ELISA was thus carried out to maintain the structure of Claudin18.2. The stable cell lines L929-Claudin 18.2 constructed in 6.1 were used for detection. Specifically, L929-Claudin 18.2 adherent cells were detached by 2 mM EDTA treatment. The cells were resuspended and adjusted to 2×10^5/mL and 100 μL of the resuspension was plated into a 96-well plate and incubated overnight at 37° C. The next day, the media was removed, and the plate was washed with PBS once. 100 μL/well 4% formaldehyde was added to the plate. After 30 min of incubation at room temperature, formaldehyde was removed, followed by being washed twice with PBS. Blocking buffer (PBS containing 2% BSA) was then added to the plate at 100 μL/well, and incubated at 37° C. for 2 h. After removal of blocking buffer, 100 μL/well of serially diluted antibodies (starting from 1 μM, with 4-fold dilution, for a total of 11 concentrations) were added to the corresponding wells, which were incubated at 37° C. for 2 h afterwards. The plate was washed with 250 μL PBST for 5 times, and was allowed to stand for 2 min each time. 100 μL/well of horseradish peroxidase labeled anti-Human IgG secondary antibody (HRP-anti-Human IgG, Jackson ImmunoResearch, 109-035-003) diluted 1:10000 in PBS (containing 2% BSA) was added to the plate. The plate was incubated at 37° C. for 1 h and washed with 250 μL of PBST 6 times, wherein the plate was allowed to stand for 2 min each time. 100 μL/well of TMB solution (Thermo, 34029) was added. The reactions were incubated at 37° C. for 20 min and stopped with 50 μL 2 mol/L H2504. The OD450 nm absorbance values were obtained on a plate reader (MD, SpectraMax M2) and the results were subjected to curve fitting by Graphpad Prism.
A cell-based ELISA method was carried out to determine the affinity of 2C6.9-TL001 (DAR: 7.12) to Claudin 18.2 on the surface of cell membrane. […]

human Claudin 18.1 = target: T3, human Claudin 18.1 (Homo sapiens, UniProt P56856); assay: Specificity by FACS, HEK293T-human Claudin 18.1 cells; assay type: binding; conditions: antibody 1000 nM
T3 construct: expressed in transfected cells

binding to human Claudin 18.2 (human Claudin 18.2 [1]): specifically bind to human Claudin 18.2 | Max MFI [2]: 165866.3 | Max signal value (OD450) (human Claudin 18.2 [4]): 0.92 | binding to human Claudin 18.1 (human Claudin 18.1): not to human Claudin 18.1
B1: 2C6.9-hz21: humanized anti-human Claudin 18.2 IgG1 kappa monoclonal antibody; heavy chain SEQ ID NO: 19, light chain SEQ ID NO: 20 (antibody)
heavy: QVQLQESGPGLVKPSETLSLTCTVSGFSLTRYGVSWIRQPPGKGLEWIGVIWGEGNTNYNPSLKSRVTISKDSSKSQVSLKLSSVTAADTAVYYCARVNFGNALDYWGQGTLVTVSS[human IgG1 constant region not spelt out]
light: DIVMTQSPDSLAVSLGERATINCKSSQSLLNSGNQKNYLTWYQQKPGQPPKLLIYWASTRDSGVPDRFSGSGSGTDFTLTISSLQAEDVAVYYCQNDFIFPLTFGGGTKVEIKRTVAAPSVFIFPPSDEQLKSGTASVVCLLNNFYPREAKVQWKVDNALQSGNSQESVTEQDSKDSTYSLSSTLTLSKADYEKHKVYACEVTHQGLSSPVTKSFNRGEC
modifications: Full length amino acid sequence of heavy chain of humanized antibody 2C6.9-hz21; Full length amino acid sequence of light chain of humanized antibody 2C6.9-hz11/2C6.9-hz21
Max. cytotoxicity (%) [3]: 30%
